Here are results for 20 molecules from PMC9911399, “Two distinct binding modes provide the RNA-binding protein RbFox with extraordinary sequence specificity”.

Substitutions are numbered along the chain they refer to; changes in the protein carry UniProt numbers. The list shows a part of the results.

First the molecules themselves.
T1: RBFOX1 RRM (Homo sapiens, UniProt Q9NWB1 109-208)
T1 sequence: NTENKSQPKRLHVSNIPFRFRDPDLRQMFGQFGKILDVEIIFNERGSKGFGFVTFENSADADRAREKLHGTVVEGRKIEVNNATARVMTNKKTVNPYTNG

B1: UGCGUCC (DNA:RNA)
RNA: GGGAGACCGGAAUUCAGAUUGUCCUGCGUCCUUAAAUCCCGUCGUAGCCACCA
DNA 1: CAATCTGAATTCCGGTCTCCC
DNA 2: TGGTGGCTACGACGGGATT
B2: CCAUGUA (DNA:RNA)
RNA: GGGAGACCGGAAUUCAGAUUGUCCCCAUGUAUUAAAUCCCGUCGUAGCCACCA
DNA 1: CAATCTGAATTCCGGTCTCCC
DNA 2: TGGTGGCTACGACGGGATT
B3: AAUUUGC (DNA:RNA)
RNA: B1 RNA with U25A, G26A, C27U, G28U, C30G
DNA 1: CAATCTGAATTCCGGTCTCCC
DNA 2: TGGTGGCTACGACGGGATT
B4: GUAGCGC (DNA:RNA)
RNA: B1 RNA with U25G, G26U, C27A, U29C, C30G
DNA 1: CAATCTGAATTCCGGTCTCCC
DNA 2: TGGTGGCTACGACGGGATT
B5: UCGCAAU (DNA:RNA)
RNA: B2 RNA with C25U, A27G, U28C, G29A, U30A, A31U
DNA 1: CAATCTGAATTCCGGTCTCCC
DNA 2: TGGTGGCTACGACGGGATT
B6: UACAGAG (DNA:RNA)
RNA: B1 RNA with G26A, G28A, U29G, C30A, C31G
DNA 1: CAATCTGAATTCCGGTCTCCC
DNA 2: TGGTGGCTACGACGGGATT
B7: UGGGCAG (DNA:RNA)
RNA: B1 RNA with C27G, U29C, C30A, C31G
DNA 1: CAATCTGAATTCCGGTCTCCC
DNA 2: TGGTGGCTACGACGGGATT
B8: UAGGUCU (DNA:RNA)
RNA: B1 RNA with G26A, C27G, C31U
DNA 1: CAATCTGAATTCCGGTCTCCC
DNA 2: TGGTGGCTACGACGGGATT
B9: UGUGCGA (DNA:RNA)
RNA: B1 RNA with C27U, U29C, C30G, C31A
DNA 1: CAATCTGAATTCCGGTCTCCC
DNA 2: TGGTGGCTACGACGGGATT
B10: CAUGCUU (DNA:RNA)
RNA: B2 RNA with C26A, A27U, U28G, G29C, A31U
DNA 1: CAATCTGAATTCCGGTCTCCC
DNA 2: TGGTGGCTACGACGGGATT
B11: UAUGCCC (DNA:RNA)
RNA: B1 RNA with G26A, C27U, U29C
DNA 1: CAATCTGAATTCCGGTCTCCC
DNA 2: TGGTGGCTACGACGGGATT
B12: UAGCUUU (DNA:RNA)
RNA: B1 RNA with G26A, C27G, G28C, C30U, C31U
DNA 1: CAATCTGAATTCCGGTCTCCC
DNA 2: TGGTGGCTACGACGGGATT
B13: GCCCUAG (DNA:RNA)
RNA: B1 RNA with U25G, G26C, G28C, C30A, C31G
DNA 1: CAATCTGAATTCCGGTCTCCC
DNA 2: TGGTGGCTACGACGGGATT
B14: UUCAUCA (DNA:RNA)
RNA: B1 RNA with G26U, G28A, C31A
DNA 1: CAATCTGAATTCCGGTCTCCC
DNA 2: TGGTGGCTACGACGGGATT
B15: ACCGGGA (DNA:RNA)
RNA: B2 RNA with C25A, A27C, U28G, U30G
DNA 1: CAATCTGAATTCCGGTCTCCC
DNA 2: TGGTGGCTACGACGGGATT
B16: CUUUGUG (DNA:RNA)
RNA: B2 RNA with C26U, A27U, A31G
DNA 1: CAATCTGAATTCCGGTCTCCC
DNA 2: TGGTGGCTACGACGGGATT
B17: AUCCAAA (DNA:RNA)
RNA: B2 RNA with C25A, C26U, A27C, U28C, G29A, U30A
DNA 1: CAATCTGAATTCCGGTCTCCC
DNA 2: TGGTGGCTACGACGGGATT
B18: AGCUAGU (DNA:RNA)
RNA: B1 RNA with U25A, G28U, U29A, C30G, C31U
DNA 1: CAATCTGAATTCCGGTCTCCC
DNA 2: TGGTGGCTACGACGGGATT
B19: GCCUACG (DNA:RNA)
RNA: B2 RNA with C25G, A27C, G29A, U30C, A31G
DNA 1: CAATCTGAATTCCGGTCTCCC
DNA 2: TGGTGGCTACGACGGGATT
B20: CCUGGCA (DNA:RNA)
RNA: B2 RNA with A27U, U28G, U30C
DNA 1: CAATCTGAATTCCGGTCTCCC
DNA 2: TGGTGGCTACGACGGGATT

The target in this test is T1, RBFOX1 RRM. As to the kind of experiment: EMSA; HiTS-Eq, 1 nM pool, 10 min; buffer printed only for the single-RNA assays: 10 mM Tris pH 7.5, 150 mM NaCl, 3.4 mM EDTA, 0.001% NP-40, 30 C. The following applies: tags: His6 N-terminal (pET28a); label: 5' 32P. A digest of the protocol: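 A pool of RNA with 7 randomized nucleotides, 5′-radiolabelled and with DNA-annealed flanks, was equilibrated at 1 nM for 10 min in 50 µL with purified RbFox RRM, wild type or mutant, across increasing protein concentrations. Free RNA was separated by 8% native PAGE, excised, reverse-transcribed, barcoded by PCR and sequenced. Relative association constants were obtained from read-count changes of each RNA species versus the control reaction and normalised to the cognate motif.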
Turning to B1, the binding signal is 0.0132 KA relative to UGCAUGU. For B2, the binding signal is 0.00341 KA relative to UGCAUGU. Consider B3, for which the binding signal is 0.0112 KA relative to UGCAUGU. For the molecule B4, the binding signal was 0.0153 KA relative to UGCAUGU. Turning to B5, the binding signal was 0.00871 KA relative to UGCAUGU. The result for B6 reads 0.00941 KA relative to UGCAUGU.

On to B7, for which the binding signal is 0.0337 KA relative to UGCAUGU. B8: the binding signal was 0.0154 KA relative to UGCAUGU. The result for B9 reads 0.0218 KA relative to UGCAUGU; that for B10, 0.0103 KA relative to UGCAUGU. The result for B11 reads 0.00935 KA relative to UGCAUGU; that for B12, 0.0104 KA relative to UGCAUGU. The result for B13 reads 0.0121 KA relative to UGCAUGU; that for B14, 0.00251 KA relative to UGCAUGU; that for B15, 0.0106 KA relative to UGCAUGU. Turning to B16, the binding signal is 0.0246 KA relative to UGCAUGU. Consider B17, for which the binding signal is 0.000204 KA relative to UGCAUGU. On to B18, for which the binding signal was 0.0151 KA relative to UGCAUGU. With B19, the binding signal was 0.0146 KA relative to UGCAUGU. B20: the binding signal is 0.0174 KA relative to UGCAUGU.
